# Measured values from patent US20250205200A1, “5-METHOXY-N,N-[…][…] THE TREATMENT OF […]” (GH RESEARCH IRELAND LIMITED, priority 2022, published 2025).
# Test system: patients with treatment-resistant major depressive disorder (TRD)
# Assay: Phase 1/2 clinical trial of inhaled 5-MeO-DMT in patients with TRD (12 mg, 18 mg, IDR 6/12/18 mg)
# Settings: for BPRS Anxiety percentage improvement: baseline 37
structure (smiles),measurement,setting,value
COc1ccc2[nH]cc(CCN(C)C)c2c1 [5-MeO-DMT],MADRS Suicidal Thoughts summed score,"12 mg n=4, 2 h, baseline 8",3
same,MADRS Inner Tension percentage improvement,"12 mg n=4, 2 h, baseline 13",85%
same,MADRS Inner Tension summed score,"12 mg n=4, 2 h, baseline 13",2
same,MADRS Concentration Difficulties summed score,"12 mg n=4, 2 h, baseline 16",7
same,MADRS Inability to Feel summed score,"12 mg n=4, 2 h, baseline 16",9
same,MADRS Lassitude summed score,"12 mg n=4, 2 h, baseline 16",10
same,MADRS Pessimistic Thoughts summed score,"12 mg n=4, 2 h, baseline 16",8
same,BPRS Blunted Affect summed score,"12 mg n=4, 3 h, baseline 11",8
same,BPRS Tension summed score,"12 mg n=4, 3 h, baseline 14",9
same,BPRS Guilt Feelings summed score,"12 mg n=4, 3 h, baseline 18",9
same,MADRS Suicidal Thoughts summed score,"12 mg n=4, Day 1, baseline 8",5
same,BPRS Blunted Affect summed score,"12 mg n=4, Day 1, baseline 11",6
same,MADRS Reduced Sleep summed score,"12 mg n=4, Day 1, baseline 12",10
same,BPRS Emotional Withdrawal summed score,"12 mg n=4, Day 1, baseline 13",8
same,MADRS Inner Tension percentage improvement,"12 mg n=4, Day 1, baseline 13",77%
same,MADRS Inner Tension summed score,"12 mg n=4, Day 1, baseline 13",3
same,BPRS Tension percentage improvement,"12 mg n=4, Day 1, baseline 14",57%
same,BPRS Tension summed score,"12 mg n=4, Day 1, baseline 14",6
same,MADRS Concentration Difficulties percentage improvement,"12 mg n=4, Day 1, baseline 16",88%
same,MADRS Concentration Difficulties summed score,"12 mg n=4, Day 1, baseline 16",2
same,MADRS Inability to Feel summed score,"12 mg n=4, Day 1, baseline 16",1
same,MADRS Lassitude summed score,"12 mg n=4, Day 1, baseline 16",0
same,MADRS Pessimistic Thoughts summed score,"12 mg n=4, Day 1, baseline 16",7
same,BPRS Guilt Feelings percentage improvement,"12 mg n=4, Day 1, baseline 18",72%
same,BPRS Guilt Feelings summed score,"12 mg n=4, Day 1, baseline 18",5
same,BPRS Anxiety summed score,"12 mg n=4, Day 1, baseline 25",6
same,MADRS Suicidal Thoughts summed score,"12 mg n=4, Day 7, baseline 8",7
same,BPRS Blunted Affect summed score,"12 mg n=4, Day 7, baseline 11",5
same,MADRS Reduced Sleep summed score,"12 mg n=4, Day 7, baseline 12",6
same,BPRS Emotional Withdrawal summed score,"12 mg n=4, Day 7, baseline 13",6
same,MADRS Inner Tension percentage improvement,"12 mg n=4, Day 7, baseline 13",62%
same,MADRS Inner Tension summed score,"12 mg n=4, Day 7, baseline 13",5
same,BPRS Tension percentage improvement,"12 mg n=4, Day 7, baseline 14",57%
same,BPRS Tension summed score,"12 mg n=4, Day 7, baseline 14",6
same,MADRS Concentration Difficulties percentage improvement,"12 mg n=4, Day 7, baseline 16",81%
same,MADRS Concentration Difficulties summed score,"12 mg n=4, Day 7, baseline 16",3
same,MADRS Inability to Feel summed score,"12 mg n=4, Day 7, baseline 16",1
same,MADRS Lassitude percentage improvement,"12 mg n=4, Day 7, baseline 16",81%
same,MADRS Lassitude summed score,"12 mg n=4, Day 7, baseline 16",3
same,MADRS Pessimistic Thoughts summed score,"12 mg n=4, Day 7, baseline 16",8
same,BPRS Guilt Feelings percentage improvement,"12 mg n=4, Day 7, baseline 18",72%
same,BPRS Guilt Feelings summed score,"12 mg n=4, Day 7, baseline 18",5
same,BPRS Anxiety summed score,"12 mg n=4, Day 7, baseline 25",6
same,MADRS Suicidal Thoughts summed score,"IDR n=8, 2 h, baseline 11",3
same,MADRS Inner Tension percentage improvement,"IDR n=8, 2 h, baseline 26",58%
same,MADRS Lassitude summed score,"IDR n=8, 2 h, baseline 27",10
same,MADRS Pessimistic Thoughts summed score,"IDR n=8, 2 h, baseline 28",7
same,BPRS Emotional Withdrawal summed score,"IDR n=8, 3 h, baseline 13",8
same,BPRS Anxiety percentage improvement,"IDR n=8, 3 h",49%
same,MADRS Suicidal Thoughts summed score,"IDR n=8, Day 1, baseline 11",1
same,BPRS Emotional Withdrawal summed score,"IDR n=8, Day 1, baseline 13",8
same,BPRS Blunted Affect summed score,"IDR n=8, Day 1, baseline 15",8
same,MADRS Inner Tension percentage improvement,"IDR n=8, Day 1, baseline 26",77%
same,MADRS Inner Tension summed score,"IDR n=8, Day 1, baseline 26",6
same,MADRS Lassitude percentage improvement,"IDR n=8, Day 1, baseline 27",81%
same,MADRS Lassitude summed score,"IDR n=8, Day 1, baseline 27",5
same,MADRS Pessimistic Thoughts percentage improvement,"IDR n=8, Day 1, baseline 28",86%
same,MADRS Pessimistic Thoughts summed score,"IDR n=8, Day 1, baseline 28",4
same,MADRS Concentration Difficulties percentage improvement,"IDR n=8, Day 1, baseline 30",97%
same,MADRS Concentration Difficulties summed score,"IDR n=8, Day 1, baseline 30",1
same,BPRS Guilt Feelings percentage improvement,"IDR n=8, Day 1, baseline 34",68%
same,MADRS Inability to Feel summed score,"IDR n=8, Day 1, baseline 36",2
same,BPRS Anxiety percentage improvement,"IDR n=8, Day 1",57%
same,MADRS Suicidal Thoughts summed score,"IDR n=8, Day 7, baseline 11",3
same,BPRS Emotional Withdrawal summed score,"IDR n=8, Day 7, baseline 13",8
same,BPRS Blunted Affect summed score,"IDR n=8, Day 7, baseline 15",8
same,BPRS Tension summed score,"IDR n=8, Day 7, baseline 16",10
same,MADRS Reduced Sleep summed score,"IDR n=8, Day 7, baseline 25",9
same,MADRS Lassitude percentage improvement,"IDR n=8, Day 7, baseline 27",89%
same,MADRS Lassitude summed score,"IDR n=8, Day 7, baseline 27",3
same,MADRS Pessimistic Thoughts percentage improvement,"IDR n=8, Day 7, baseline 28",89%
same,MADRS Pessimistic Thoughts summed score,"IDR n=8, Day 7, baseline 28",3
same,MADRS Concentration Difficulties summed score,"IDR n=8, Day 7, baseline 30",9
same,BPRS Guilt Feelings percentage improvement,"IDR n=8, Day 7, baseline 34",71%
same,BPRS Guilt Feelings summed score,"IDR n=8, Day 7, baseline 34",10
same,MADRS Inability to Feel summed score,"IDR n=8, Day 7, baseline 36",6
same,Patients experiencing at least one ADR,Part A 12 mg,3 of 4
same,Proportion of patients with MADRS remission,"Part A 12 mg n=4, day seven",50%
same,Patients experiencing at least one ADR,Part A 18 mg,3 of 4
same,SAEs,Part A (12 mg and 18 mg),No SAEs were reported
same,Severity and outcome of ADRs,Part A (12 mg and 18 mg),mild and resolved spontaneously
same,Outcome of ADRs,Part B IDR,resolved spontaneously
same,SAEs,Part B IDR,No SAEs were reported
